Data published in patent US20240270821A1, “GIP/GLP1/GCG TRI-RECEPTOR AGONISTS AND USES THEREOF” (priority 2023, published 2024).
At least one compound was matched to its structure with a doubt left. Starred links: 1 amine or outer side, 2 acyl side, 3 side chain; linkers in the order of their positions; H or OH if unused. Non-standard residues stand in square brackets, D forms with d. Groups on a side chain read outwards from the residue. *: point of attachment. C20 diacid = O=C(O)CCCCCCCCCCCCCCCCCCC(=O)*; γGlu = O=C(O)[C@H](CCC(=O)[*:2])N[*:1]; αMeL = CC(C)C[C@](C)(N)C(=O)O; AEEA = NCCOCCOCC(=O)O; Aib = CC(C)(N)C(=O)O

Experiments:
Format in all cases: cell-based
human GLP1-R = human GLP1-R (Homo sapiens, UniProt P43220); assay: GLP1-R internalization assay in HEK293 cells; details: HEK293 cells expressing SNAP-GLP-1R; read-out: GLP1R Internalization EC50
human GLP1-R, sequence (P43220 24-463): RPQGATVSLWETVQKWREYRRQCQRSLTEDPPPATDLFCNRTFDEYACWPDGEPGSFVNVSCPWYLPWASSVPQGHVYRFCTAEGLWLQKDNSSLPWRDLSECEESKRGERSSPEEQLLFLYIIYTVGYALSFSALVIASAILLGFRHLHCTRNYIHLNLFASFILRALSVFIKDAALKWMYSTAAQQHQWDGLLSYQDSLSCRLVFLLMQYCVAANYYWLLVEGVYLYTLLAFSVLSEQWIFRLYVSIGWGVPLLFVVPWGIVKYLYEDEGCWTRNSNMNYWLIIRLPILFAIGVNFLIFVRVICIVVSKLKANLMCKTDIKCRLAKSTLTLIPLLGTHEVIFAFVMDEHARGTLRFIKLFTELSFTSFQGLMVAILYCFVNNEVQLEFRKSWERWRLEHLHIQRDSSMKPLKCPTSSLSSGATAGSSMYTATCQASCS

hGIPR [1] = molecular target: T1, hGIPR (Homo sapiens, UniProt P48546); assay: Functional cAMP activation in the presence of 0.1% casein (no HSA); details: in the presence of 0.1% casein (no HSA); geometric mean; read-out: Relative cAMP EC50, hGIPR
T1 sequence (P48546 22-466): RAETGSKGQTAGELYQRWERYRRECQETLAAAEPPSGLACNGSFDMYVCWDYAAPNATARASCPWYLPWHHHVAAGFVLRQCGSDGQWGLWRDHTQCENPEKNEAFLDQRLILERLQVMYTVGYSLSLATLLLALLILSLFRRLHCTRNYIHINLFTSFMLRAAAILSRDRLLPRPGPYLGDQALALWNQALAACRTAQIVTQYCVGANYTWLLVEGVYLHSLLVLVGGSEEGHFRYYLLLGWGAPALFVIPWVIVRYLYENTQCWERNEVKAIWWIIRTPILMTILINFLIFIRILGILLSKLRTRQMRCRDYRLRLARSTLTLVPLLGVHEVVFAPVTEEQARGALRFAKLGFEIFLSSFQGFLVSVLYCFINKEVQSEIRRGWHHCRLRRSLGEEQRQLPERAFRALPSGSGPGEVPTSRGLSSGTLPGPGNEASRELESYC

hGIPR [2] = molecular target: T1, hGIPR; assay: Functional cAMP activity in the presence of 1% HSA; details: HEK-293 clonal cells expressing hGIPR; in the presence of 1% HSA; geometric mean of relative EC50; read-out: cAMP Rel EC50, hGIPR
hGLP-1R [3] = molecular target: T2, hGLP-1R (Homo sapiens, UniProt P43220); assay: Functional cAMP activation in the presence of 0.1% casein (no HSA); details: in the presence of 0.1% casein (no HSA); geometric mean; read-out: Relative cAMP EC50, hGLP-1R
T2 sequence (P43220 24-463): as the sequence (P43220 24-463) above

human GcgR = human GcgR (Homo sapiens, UniProt P47871); assay: Functional cAMP activity in the presence of 1% HSA; details: HEK-293 clonal cells expressing hGcgR; in the presence of 1% HSA; geometric mean of relative EC50; read-out: cAMP Rel EC50, hGcgR
human GcgR, sequence (P47871 26-477): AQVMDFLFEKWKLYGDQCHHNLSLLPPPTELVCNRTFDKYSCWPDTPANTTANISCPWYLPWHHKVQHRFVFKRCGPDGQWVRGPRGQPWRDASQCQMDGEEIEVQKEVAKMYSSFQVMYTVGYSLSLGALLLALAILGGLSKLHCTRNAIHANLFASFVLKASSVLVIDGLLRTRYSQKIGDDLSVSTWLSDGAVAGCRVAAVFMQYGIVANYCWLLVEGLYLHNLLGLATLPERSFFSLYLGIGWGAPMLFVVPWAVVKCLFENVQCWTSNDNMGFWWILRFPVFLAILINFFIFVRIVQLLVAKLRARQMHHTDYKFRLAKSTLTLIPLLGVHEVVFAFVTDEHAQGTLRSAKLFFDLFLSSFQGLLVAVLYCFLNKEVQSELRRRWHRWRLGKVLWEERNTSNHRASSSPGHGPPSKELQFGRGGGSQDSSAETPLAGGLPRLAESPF

hGLP-1R [4] = molecular target: T2, hGLP-1R; assay: Functional cAMP activity in the presence of 1% HSA; details: HEK-293 clonal cells expressing hGLP-1R; in the presence of 1% HSA; geometric mean of relative EC50; read-out: cAMP Rel EC50, hGLP-1R
hGcgR = hGcgR (Homo sapiens, UniProt P47871); assay: Functional cAMP activation in the presence of 0.1% casein (no HSA); details: in the presence of 0.1% casein (no HSA); geometric mean; read-out: Relative cAMP EC50, hGcgR
hGcgR, sequence (P47871 26-477): as above

H-Y[Aib]QGTFTSDFSK[αMeL]LDKK([AEEA-γGlu-C20 diacid])AQ[Aib]AFIEYLLAGAPSSGEPPPSEG-NH2 [Example 24]
EC50 (human GLP1-R): 79.9 nM
EC50 (hGIPR [1]): 0.308 nM
EC50 (hGIPR [2]): 102 nM
EC50 (hGLP-1R [3]): 3.09 nM
EC50 (human GcgR): 1390 nM
EC50 (hGLP-1R [4]): 447 nM
EC50 (hGcgR): 9.66 nM
